Laboratory results as given in PubChem BioAssay AID624417 (National Center for Advancing Translational Sciences (NCATS), 2012).
Several values for one entry are separate records, joined by “and”; a condition that tells them apart may be missing. Equal values may be shown once. Among all 410,000 compounds or so, about 6,400 (1.6%) were called active. Inconclusive means that the source gave no clear call. Such entries were picked first, then a sample of the others. Calls come from the whole dose curve; as a rule, active = well fitted inhibition curve with a large enough effect; inconclusive = small, poorly fitted or top-dose-only effect; inactive = no such curve, though single readings can be large or run the other way. A potency beside an inconclusive call is a rough fit, not a confirmed value.

Target: Glucagon-like peptide 1 receptor (Homo sapiens) (UniProt P43220)
Experiment: qHTS of GLP-1 Receptor Inverse Agonists (Inhibition Mode); note: nearly all actives have a fitted effect of over 55% in size
Details: HEK293 GLP-1R CRE-luciferase, luminescence, 24 h, GLP-1R form is constitutively active; activity change, negative = inhibition: at 38.3 µM (top of the series) unless noted
In short: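 qHTS in 1536-well format: reporter HEK293 cells expressing constitutive GLP-1R activity in DMEM + 10% Nu serum, 24 hr with compounds at 37 deg C, luminescence read after 12 min with detection reagent.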
% is set by controls: 0 for no effect and ±100 for the full control effect; potency is the fitted concentration of half-maximal effect; tags give direction and shape of the fitted curve.

Sequence of UniProt P43220 (P43220 whole entry, looked up): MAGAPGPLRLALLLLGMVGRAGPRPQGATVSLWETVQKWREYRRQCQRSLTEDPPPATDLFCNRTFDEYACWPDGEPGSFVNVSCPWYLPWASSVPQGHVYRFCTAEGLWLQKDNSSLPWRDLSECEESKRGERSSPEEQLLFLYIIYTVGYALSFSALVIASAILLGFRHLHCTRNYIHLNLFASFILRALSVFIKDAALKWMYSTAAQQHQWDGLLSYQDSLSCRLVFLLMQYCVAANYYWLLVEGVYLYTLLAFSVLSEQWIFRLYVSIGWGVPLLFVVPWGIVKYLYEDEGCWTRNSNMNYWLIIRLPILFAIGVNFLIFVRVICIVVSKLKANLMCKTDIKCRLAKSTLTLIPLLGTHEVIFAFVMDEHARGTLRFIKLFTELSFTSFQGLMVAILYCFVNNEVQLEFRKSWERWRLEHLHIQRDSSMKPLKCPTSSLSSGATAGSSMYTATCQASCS

Row | SMILES | Potency | activity change, negative = inhibition
1 | CCOc1ccc(NC(=O)CC2C(=O)N(c3ccc(F)cc3)C(=O)N2CCc2sccc2C)cc1 (stereo unspecified) | inconclusive: 15.8 µM [inhibitor, single point] | 
2 | O=C(NCC1(c2ccccc2)CCCC1)c1ccco1 | inconclusive: 12.6 µM [inhibitor, partial curve, poor fit] | 
3 | CCN1CCN(CCOc2ccccc2OCc2ccccc2)CC1 | inconclusive: 28.2 µM [inhibitor, single point] | 
4 | O=C(Nc1nnc(-c2cccs2)o1)c1cc(-c2ccccc2)nc2ccccc12 | inconclusive: 7.94 µM [inhibitor, partial curve, poor fit] | 
5 | CS(=O)(=O)N(CC(=O)Nc1ccc(F)cc1F)C1CCCCC1 | inconclusive: 28.2 µM [inhibitor, single point] | 
6 | CCN(CC)CCCNC(=O)CSc1nc2nc(C)c(Cc3ccccc3C)c(C)n2n1 |  | inactive: -14.9%
7 | CC(=O)c1ccc(OCc2cc(C(=O)N(C)Cc3cc(C)no3)no2)cc1 |  | inactive: 18.1%
8 | CCCc1nc2ccc(C)cn2c1Cc1cccc(Cl)c1 | inconclusive: 10 µM [inhibitor, partial curve] | 
9 | c1ccc(C(Cc2nc(-c3cccnc3)no2)c2ccccc2)cc1 | inconclusive: 11.2 µM [inhibitor, single point] | 
10 | CCOc1ccccc1N(CC(=O)Nc1ccccc1)S(=O)(=O)c1ccccc1 | inconclusive: 10 µM [inhibitor, single point] | 
11 | C=CCc1cc(Cl)ccc1OCCCNC(C)C | inconclusive: 10 µM [inhibitor, partial curve, poor fit] | 
12 | COCCN(Cc1ccco1)C(=O)c1cc2c(Cl)nc3ccc(C)cc3c2s1 |  | inactive: 6.31%
13 | COc1ccccc1CNc1nc(NCCOc2ccccc2)c2sccc2n1 | inconclusive: 8.91 µM [inhibitor, partial curve] | 
14 | C=CC[C@H](CC(=O)N(CCO)Cc1ccccc1)C(=O)N[C@@H](COC(=O)[C@@H](CC=C)Cc1ccc(F)cc1)Cc1c[nH]c2ccccc12 | inconclusive: 11.2 µM [inhibitor, partial curve, poor fit] | 
15 | Cc1ncoc1C(=O)N1CCCC(C(=O)c2ccc(-c3ccccc3)c(F)c2)C1 (stereo unspecified) | inconclusive: 11.2 µM [inhibitor, partial curve, poor fit] | 
16 | COC(=O)c1c(NC(NC(=O)CC(C)C)C(Cl)(Cl)Cl)sc2c1CCC2 (stereo unspecified) | inconclusive: 7.94 µM [inhibitor, partial curve, poor fit] | 
17 | COc1ccc(-c2nc(CS(=O)CC(=O)NCCCN3CC(C)CC(C)C3)c(C)o2)cc1OC (stereo unspecified) |  | inactive: 0%
18 | CC(C)[C@@H]1Cc2[nH][nH]c(=O)c2[C@H](CCc2ccccc2)O1 | inconclusive: 12.6 µM [inhibitor, single point] | 
19 | Cc1ccc(S(=O)(=O)N2CCCC(C(=O)NCC(C)C)C2)cc1 (stereo unspecified) | inconclusive: 17.8 µM [inhibitor, single point] | 
20 | O=C1CC(N2CCC(Cc3ccccc3)CC2)C(=O)N1CCc1ccccc1 (stereo unspecified) | inconclusive: 28.2 µM [inhibitor, single point] | 
21 | N#Cc1c(NC(=O)c2nc3ncccn3n2)sc2c1CCCCC2 | inconclusive: 2.82 µM [inhibitor, full curve, poor fit] | 

Row | SMILES | Potency | activity change, negative = inhibition
22 | CCC(C(=O)OCC(=O)Nc1ccc(F)cc1)c1ccccc1 (stereo unspecified) | inconclusive: 8.91 µM [inhibitor, partial curve, poor fit] | 
23 | O=C(CN1C(=O)NC2(CCCC2)C1=O)Nc1nc(-c2ccccc2)cs1 | inconclusive: 0.447 µM [inhibitor, full curve, poor fit] | 
24 | O=C(CN1C(=O)c2ccccc2S1(=O)=O)N1CCc2ccccc21 | inconclusive: 1.12 µM [inhibitor, full curve, poor fit] | 
25 | CC(C)(C)OC(=O)NCCCCCc1nnc(SCc2ccc(F)cc2)o1 | inconclusive: 28.2 µM [inhibitor, single point] | 
26 | O=C(NCc1ccc(F)cc1)c1cc(Sc2ccc(F)cc2F)nc2ccccc12 | inconclusive: 5.62 µM [inhibitor, partial curve, poor fit] | 
27 | Cc1c(C(=O)NCc2ccccc2Cl)sc2nc(-c3ccc(F)cc3)cn12 | inconclusive: 12.6 µM [inhibitor, single point] | 
28 | CC(C)c1cc(-c2n[nH]c(=S)n2Cc2ccccc2)cs1 |  | inactive: 2.32%
29 | Cc1nn(C(=O)c2ccccc2)c(C)c1S(=O)(=O)N1CCOCC1 |  | inactive: 14.2%
30 | O=C(CCc1nnc(-c2ccc3c(c2)OCO3)o1)N1CCC(c2ccc(F)cc2)C1 (stereo unspecified) | inconclusive: 12.6 µM [inhibitor, single point] | 
31 | O=C(c1cc(COc2ccc(F)cc2Cl)on1)N1CCCCCC1 | inconclusive: 7.94 µM [inhibitor, partial curve, poor fit] | 
32 | CCOC(=O)C1CCN(C(=O)Cn2c(-c3cccs3)cc3cc(Cl)ccc32)CC1 | inconclusive: 7.08 µM [inhibitor, partial curve, poor fit] | 
33 | O=C(NCc1ccc(Cl)cc1)c1ccc(NC(=O)N2CC3CCCN3c3ccccc32)cc1 (stereo unspecified) | inconclusive: 10 µM [inhibitor, partial curve, poor fit] | 
34 | O=C(Nc1ccccc1)N(CCCN1CCOCC1)Cc1cc2cc3c(cc2[nH]c1=O)OCCO3 |  | inactive: 38.8%
35 | O=C(N/N=C/c1ccc2c(c1)OCO2)c1ccccn1 | inconclusive: 3.98 µM [inhibitor, partial curve, poor fit] | 
36 | C/C(CC(=O)Nc1ccc2c(c1)OCCO2)=N\NC(=O)COc1ccc(C)cc1Br | inconclusive: 1.58 µM [inhibitor, full curve, poor fit] | 
37 | COCC(C)NC(=O)c1oc2c(c1C)C1(CCC2)SCCS1 (stereo unspecified) | inconclusive: 11.2 µM [inhibitor, partial curve, poor fit] | 
38 | CC(=O)N1C(=O)C2(C(C#N)=C(N)Oc3c2c(C)nn3-c2ccccc2)c2ccccc21 (stereo unspecified) | inconclusive: 3.98 µM [inhibitor, partial curve] | 
39 | COc1cccc(C(=O)NCC(=O)N/N=C/c2cn[nH]c2-c2ccccc2)c1 | inconclusive: 11.2 µM [inhibitor, partial curve, poor fit] | 
40 | COC(=O)N/N=C/c1cc(C)n(-c2cccc3ccccc23)c1C | inconclusive: 10 µM [inhibitor, partial curve] | 
41 | O=C(NNC(=O)c1cc(-c2ccccc2)nn1-c1ccccc1)c1ccccc1 | inconclusive: 10 µM [inhibitor, partial curve, poor fit] | 
42 | COc1ccc(N2CCN(CC(O)COc3ccc(C)cc3C)CC2)cc1 (stereo unspecified) | inconclusive: 10 µM [inhibitor, partial curve] and inconclusive: 10 µM [inhibitor, partial curve, poor fit] | 

Row | SMILES | Potency | activity change, negative = inhibition
43 | CC(CCc1ccccc1)NC(=O)c1nnc(Cc2ccc(F)cc2)o1 (stereo unspecified) | inconclusive: 28.2 µM [inhibitor, single point] | 
44 | O=S(=O)(Nc1ccc(Br)cc1)c1cccc2cccnc12 | inconclusive: 12.6 µM [inhibitor, single point] | 
45 | CN(CC(=O)Nc1cccc(F)c1)C(=O)c1cc(-c2ccccc2)nc2ccccc12 | inconclusive: 11.2 µM [inhibitor, partial curve, poor fit] | 
46 | Cc1ccc(OCC(=O)Nc2ccc(OCc3cc(=O)n4ccsc4n3)cc2)cc1 |  | inactive: 1.3%
47 | Cc1ccc2[nH]c(CN3CCC(CO)(CC4CCCCO4)CC3)c(C)c2c1 (stereo unspecified) | inconclusive: 10 µM [inhibitor, partial curve, poor fit] | 
48 | Cc1ccc(S(=O)(=O)C2(C(=O)Nc3ccc(C)c(Cl)c3)CC2)cc1 | inconclusive: 11.2 µM [inhibitor, single point] | 
49 | COC(=O)c1ccc(NS(=O)(=O)c2cc(-c3cc(C)no3)ccc2OC)cc1 | inconclusive: 1 µM [inhibitor, full curve, poor fit] | 
50 | CCC(=O)N1c2ccccc2CC1C(=O)NCCc1ccccc1Cl (stereo unspecified) |  | inactive: 14.9%
51 | CC(=O)NC(C)(c1ccccc1)c1nc(-c2cccc(F)c2)cs1 (stereo unspecified) | inconclusive: 14.1 µM [inhibitor, single point] | 
52 | N#Cc1ccc(CSc2ccc(S(=O)(=O)N3CCCCCC3)cn2)cc1 | inconclusive: 28.2 µM [inhibitor, single point] | 
53 | COc1ccc(C[C@@H]2CN3C(=NC[C@@H]3C)N2C[C@H](C)NC(=O)c2ccc(C)c(Br)c2)cc1 | inconclusive: 10 µM [inhibitor, single point] | 
54 | COc1cccc(-c2csc(NC(=O)Nc3ccccc3)n2)c1 | inconclusive: 3.55 µM [inhibitor, partial curve, poor fit] | 
55 | CCOC(=O)N1CCN(c2nc(-c3cccs3)nc3ccccc23)CC1 | inconclusive: 28.2 µM [inhibitor, single point] | 
56 | Cn1nc(C(=O)NCc2cccc(Cl)c2)c2c1-c1ccccc1SC2 | inconclusive: 12.6 µM [inhibitor, single point] | 
57 | Cc1cccc(N=C2NC(=O)/C(=C/c3cccn3C)S2)c1 | inconclusive: 22.4 µM [inhibitor, single point] | 
58 | COCCNc1ncnc2c1cnn2-c1cc(Cl)ccc1C |  | inactive: 0.736%
59 | O=C(CCNS(=O)(=O)c1ccccc1)NCCSc1ccc(Br)cc1 | inconclusive: 14.1 µM [inhibitor, single point] | 
60 | Cn1ccc2c(-c3cccc(C=O)c3)cc3c(c21)C1CCC3C1 (stereo unspecified) | inconclusive: 28.2 µM [inhibitor, single point] | 
61 | CCCCCCCOc1ccc(C2CC(=O)N(C)C2=O)cc1 (stereo unspecified) | inconclusive: 10 µM [inhibitor, partial curve, poor fit] | 
